# According to PubChem BioAssay AID686978 (National Center for Advancing Translational Sciences (NCATS), 2013):
# Hit rate of the full screen: of about 420,000 compounds, about 64,000 (15%) were called active. Inconclusive results, whose numbers are uncertain, are shown with a selection of clear calls. Calls follow the shape of the dose curve; as a rule, active = well fitted inhibition curve with a large enough effect; inconclusive = small, poorly fitted or top-dose-only effect; inactive = flat fitted curve, though single readings scatter. Potencies of inconclusive entries are left out as doubtful fits.
# Assay: qHTS for Inhibitors of human tyrosyl-DNA phosphodiesterase 1 (TDP1): qHTS in cells in absence of CPT; also: nearly all actives have a fitted effect of over 55% in size
# Conditions: DT40 Tdp1-/- hTDP1 cells, no CPT, ATP luminescence, 48 h; activity change, negative = growth inhibition: at 46.2 µM (top of the series)
# Method in brief: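 Cells were dispensed at 400 per well, compounds added by pin tool, plates incubated ≥48 hr at 37 °C, then CellTiter-Glo added for 30 min at room temperature before luminescence reading. Line: DT40 Tdp1-/- complemented with hTDP1; camptothecin omitted.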
# % is scaled to controls: 0 for no effect and ±100 for the full control effect; potency is read from the fitted curve at half-maximal effect; tags tell the direction and shape of the fitted curve.
SMILES,"activity change, negative = growth inhibition",Potency
O=C(Nc1cccc(C(=O)N2CCCC2)c1)c1ccccc1Cl,inactive: 2.42%,
CCOc1ccccc1NC(=O)Cn1c(=O)n(-c2ccc(F)cc2)c(=O)c2c3c(sc21)CN(C(C)=O)CC3,inactive: 6.59%,
CN1C(=O)/C(=C/c2cccc(Cl)c2)Sc2ccc(C(=O)N3CCCC3)cc21,,"inconclusive [inhibitor, single point]"
Cc1ccc(C(c2nnnn2Cc2ccccc2)N2CCN(Cc3ccncc3)CC2)cc1 (stereo not given),,"inconclusive [inhibitor, single point]"
COc1ccc2[nH]c(C)c(CCNC(=S)Nc3ccccc3C)c2c1,,"inconclusive [inhibitor, partial curve, poor fit]"
COc1ccc(S(=O)(=O)N2CCOCC2)cc1N=Nc1sc(N)nc1-c1ccccc1,,active: 2.31 µM
COc1cc(NC(=O)c2cc([N+](=O)[O-])ccc2NC(=O)CNCc2ccccn2)cc(OC)c1,,"inconclusive [inhibitor, single point]"
CC(C)c1ccc(NC(=O)CCS(=O)(=O)c2cccc3nonc23)cc1,,active: 23.1 µM
CCOC(=O)N1CCN(C(=O)c2ccc3oc(CCCc4ccccc4)nc3c2)CC1,,"inconclusive [inhibitor, partial curve, poor fit]"
Cc1ccc(NC(=O)Cc2ccsc2)cc1Cl,inactive: -28.6%,
Cc1c(NC(=O)c2ccccc2NC(=O)COc2ccccc2)cccc1C(=O)O,inactive: 5.43%,
O=S(=O)(NC1CCCC1)c1ccc(Br)s1,inactive: -2.56%,
COc1ccc(-c2nc3cnc(N4CCN(C)CC4)nc3n(C3CC3)c2=O)cc1,inactive: -0.0923%,
COc1ccc(-c2csc(CCn3nc(C)cc3C)n2)cc1,,"inconclusive [inhibitor, single point]"
O=C(N/N=C1\CC(c2ccccc2)Oc2ccccc21)c1ccc(O)cc1 (stereo not given),,"inconclusive [inhibitor, single point]"
CCC(=O)Nc1cc(C(=O)OCc2ccc(C(=O)Oc3ccccc3)cc2)ccc1C,inconclusive: -33.5% [inhibitor],
COc1ccc(CN2CCN(C(=O)CCC(=O)Nc3nnc(C(F)(F)F)s3)CC2)cc1F,inactive: -15%,
Cc1ccc(NC(=O)CN2CCCN(S(=O)(=O)c3ccc(Br)s3)CC2)cc1,,active: 18.4 µM
CC(=O)Nc1ccc(NC(=O)c2cc3sccc3n2Cc2ccc(Cl)cc2)cc1,,"inconclusive [inhibitor, partial curve]"
O=C1N(Cc2ccccc2)c2ccc(Br)cc2[C@]12C[C@H](O)CO2,,"inconclusive [inhibitor, single point]"
CCCCNC(=O)COC(=O)c1c2c(nc3ccccc13)CCC2,,"inconclusive [inhibitor, single point]"
Cc1nc(CS(=O)(=O)c2ccc(Cl)cc2)cc(Sc2ccc(Cl)cc2)n1,,"inconclusive [inhibitor, single point]"
CCN(CC)C(=O)c1cccc(NC(=O)c2cc(C3CC3)nc3c2cnn3C(C)C)c1,,"inconclusive [inhibitor, single point]"

SMILES,"activity change, negative = growth inhibition",Potency
CCCC1S/C(=N/N=C/c2ccc(OC)cc2)N(Cc2ccc(OC)cc2)C1=O (stereo not given),,"inconclusive [inhibitor, full curve, poor fit]"
COc1ccccc1NC(=O)CSc1nnc(Cc2cccn2C)n1CCc1ccccc1,inconclusive: -31.4% [inhibitor],
Cc1cc(C)cc(NC(=O)Nc2ccccc2OCc2cc(=O)n3ccccc3n2)c1,,"inconclusive [inhibitor, single point]"
COCCN1C(=O)/C(=C/c2cc3c(cc2Br)OCO3)NC1=S,,"inconclusive [inhibitor, single point]"
COc1cc(NC(=O)Cn2cnc3c2c(=O)n(C)c(=O)n3C)c(OC)cc1Cl,inactive: -13.9%,
CC1Cc2cc(S(=O)(=O)N3CCN(c4ccccc4)CC3)ccc2N1C(=O)C1CC1 (stereo not given),,"inconclusive [inhibitor, partial curve]"
CC(C)Nc1nc(NC(C)C)nc(Oc2ccc(OCc3ccccc3)nn2)n1,,"inconclusive [inhibitor, single point]"
CCOc1ccc(-c2nnc(NC(=O)C3CCCC3)o2)cc1,,"inconclusive [inhibitor, single point]"
Cc1ccc2oc(-c3cccc(NC(=O)c4ccccn4)c3)nc2c1,,"inconclusive [inhibitor, partial curve, poor fit]"
CCOC(=O)c1c(NC(=O)/C(C#N)=C/c2ccccc2)sc2c1CCC2,inactive: 8.89%,
S=C(NCCNC(=S)Nc1ccccc1Cl)Nc1ccccc1Cl,,"inconclusive [inhibitor, single point]"
Cc1nc2ccccc2n1CCC(=O)Nc1cccc(F)c1,,"inconclusive [inhibitor, single point]"
CCOc1ccccc1NC(=O)c1c(NCc2cccs2)sc2c1CCCCC2,,active: 20.6 µM
CCC1C(=O)NCCN1Cc1nc(-c2ccc(C)s2)oc1C (stereo not given),,"inconclusive [inhibitor, single point]"
CCOC(=O)c1ccc(NC(=O)c2c(C)[nH]c(C(=O)OCC)c2C)cc1,inactive: -14.1%,
COc1ccc(N2CC(C)Cn3c2nc2c3c(=O)n(Cc3ccc(C)cc3)c(=O)n2C)c(OC)c1 (stereo not given),,active: 16.4 µM
O=C(NCc1ccccc1Cl)c1ccc(CS(=O)Cc2ccc(Cl)cc2)o1 (stereo not given),inactive: 3.7%,
CCOC(=O)C1=CN(Cc2cccc(F)c2)S(=O)(=O)N(CC)C1c1ccc2ccccc2c1 (stereo not given),,"inconclusive [inhibitor, partial curve]"
Cc1cc(C)cc(C(=O)NC(CC(N)=O)c2ccc(NC3CCCCC3)c([N+](=O)[O-])c2)c1 (stereo not given),inactive: -2.84%,
CCOc1ccc(NC(=O)c2c(NC(=O)c3ccccc3F)sc3c2CCC3)cc1,inactive: -14.3%,
CCCCCC(=O)N1CCCC1,inactive: -15.7%,
CCOc1ccc(N/C(=N/c2nc(C)cc(C)n2)NC(C)=O)cc1,,"inconclusive [inhibitor, single point]"
